Out of some 210,000 compounds screened, about 5,900 (2.8%) were called active. Inconclusive means that the source gave no clear call. Such entries were picked first, then a sample of the others. Calls follow the shape of the dose curve; as a rule, active = well fitted activation curve with a large enough effect; inconclusive = small, poorly fitted or top-dose-only effect; inactive = no such curve, though single readings can be large or run the other way. Potencies of inconclusive entries are doubtful fits and often do not repeat.
assay: qHTS Assay for Enhancers of SMN2 Splice Variant Expression; settings: HEK293 SMN2-luciferase splicing reporter, luminescence, 30-36 h; series mostly up to 46.1 µM; also: nearly all actives have a fitted effect of over 55% in size
Procedure, shortened: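 HEK293 cells carry an SMN2 minigene-luciferase reporter in which exon 7 inclusion puts luciferase in frame. Cells were seeded at 2000 cells/well, attached for 10-12 hours, then exposed to compounds for 30-36 hours at 37C before ONE-Glo luminescence.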
Potency is read from the fitted curve at half-maximal effect; tags tell the direction and shape of the fitted curve.

With Cc1ccc(Cn2c(=O)n(Cc3ccccc3)c(=O)c3c(C)c(C)sc32)cc1 as the compound, how does the Potency read?
Its Potency is “inactive”.

With CC(=O)c1cnc(-c2cccc(Cl)c2)s1 as the compound, how does the Potency read?
The Potency was inconclusive: 25.1 µM [activator, partial curve].

With N#Cc1cc2c(N)c(C(=O)Nc3ccccc3)sc2nc1N as the compound, how does the Potency read?
Its Potency is inconclusive: 12.6 µM [activator, partial curve, poor fit].

With O=C(Nc1nnc(Cc2ccccc2)s1)c1ccco1 as the compound, how does the Potency read?
The Potency was inconclusive: 11.2 µM [activator, single point].

With CCCOc1ccccc1C1C(C(=O)OC)=CN(C(C)C)C=C1C(=O)OC as the compound, how does the Potency read?
The Potency was inconclusive: 0.0032 µM [activator, full curve, poor fit].

For CCOC(=O)c1c(C)n(C)c2ccc(OC(C)C(=O)OC)cc12 (configuration not stated), which Potency is on record?
The Potency was inconclusive: 0.01 µM [activator, full curve, poor fit].

With Cc1cccc2nc(CSc3nc4ccccc4[nH]3)cn12 as the compound, how does the Potency read?
The Potency was “inactive”.

With COC(=O)COc1ccc2c(=O)c(Oc3ccccc3)c(C)oc2c1 as the compound, how does the Potency read?
Its Potency is inconclusive: 0.02 µM [activator, full curve, poor fit].

With O=C(O)c1ccc(Oc2nc3ccccc3s2)cc1 as the compound, how does the Potency read?
The Potency was inconclusive: 3.16 µM [activator, partial curve].

Which Potency does the source give for CC1CCC(NC(=O)c2ccc(NC(=O)c3ccc(=O)[nH]c3)cc2)CC1 (configuration not stated) here?
The Potency was inconclusive: 25.1 µM [activator, single point].

With Cc1ccc(C(=O)Nc2sc3c(c2C(=O)O)CCCCC3)o1 as the compound, how does the Potency read?
Its Potency is active: 12.6 µM.

For CCCc1nnc(NC(=O)CC(=O)Nc2ccccc2C(=O)O)s1, which Potency is on record?
Its Potency is “inactive”.

Which Potency does the source give for Cn1cc(Cl)c(C(=O)NC2CCCCCC2)n1 here?
Its Potency is inconclusive: 11.2 µM [activator, single point].

With Cc1ccc(-c2nc(P(=O)(c3ccccc3)c3ccccc3)c(N3CCOCC3)o2)cc1 as the compound, how does the Potency read?
Its Potency is inconclusive: 35.5 µM [activator, partial curve, poor fit].

For COc1ccc(C2CC(=O)c3cc(-c4nc(-c5cccc([N+](=O)[O-])c5)cs4)c(=O)n(-c4ccc(F)cc4)c3C2)cc1 (configuration not stated), which Potency is on record?
The Potency was “inactive”.

For FC(F)(F)COc1nc(OCC(F)(F)F)nc(N2CCN(c3ccccc3)CC2)n1, which Potency is on record?
Its Potency is “inactive”.

With O=C(Cn1cccc1C(=O)c1ccccc1)NCc1ccccc1Cl as the compound, how does the Potency read?
Its Potency is inconclusive: 15.8 µM [activator, partial curve].

Which Potency does the source give for CCCNC(=O)/C=C/c1ccc(C(C)C)cc1 here?
Its Potency is inconclusive: 17.8 µM [activator, single point].

For COc1ccc(CNc2nc3c(-c4cccc(F)c4)nnn3c3ccccc23)cc1, which Potency is on record?
The Potency was inconclusive: 12.6 µM [activator, single point].

Which Potency does the source give for COc1ccc2c(c1)c(=O)cc(-c1ccccc1)n2C here?
The Potency was inconclusive: 35.5 µM [activator, single point].

For Nc1nc(N2CCN(C(=O)c3ccco3)CC2)nc2ccc(Br)cc12, which Potency is on record?
The Potency was active: 7.94 µM.

For CCCC(=O)Nn1cnc2c(c1=O)C1(CCCCC1)Cc1ccccc1-2, which Potency is on record?
Its Potency is “inactive”.

Which Potency does the source give for O=C(CCl)Nc1cn(-c2ccccc2)nc1-c1ccc(F)cc1 here?
The Potency was “inactive”.

For C/C(=N/NC(=O)c1cc(C(C)C)[nH]n1)c1cccs1, which Potency is on record?
Its Potency is active: 11.2 µM.

For O=C(Nc1nc(-c2ccc3ccccc3c2)cs1)c1ccc(N2C(=O)CCC2=O)cc1, which Potency is on record?
Its Potency is “inactive”.

With O=c1cc(O)nc(SCc2ccccc2)n1-c1ccc(Cl)cc1 as the compound, how does the Potency read?
The Potency was inconclusive: 25.1 µM [activator, single point].

With COc1cc(CC(=O)Nc2ncc(C)s2)cc(OC)c1OC as the compound, how does the Potency read?
The Potency was inconclusive: 1.78 µM [activator, partial curve, poor fit].

With CC(C)(C)c1ccc(C(=O)Nc2cccc3c(=O)[nH][nH]c(=O)c23)cc1 as the compound, how does the Potency read?
Its Potency is “inactive”.

Which Potency does the source give for Cc1nn(Cc2ccccc2)c(=O)n1N(C)c1ncc(C(F)(F)F)cc1Cl here?
The Potency was inconclusive: 2.82 µM [activator, full curve, poor fit].

Which Potency does the source give for O=C(c1ccc2c(c1)N(Cc1ccc(Cl)cc1)C(=O)c1ccccc1S2=O)N1CCC(Cc2ccccc2)CC1 (configuration not stated) here?
The Potency was “inactive”.

For Cc1n[nH]c(C)c1N=Nc1ccc(Br)cc1, which Potency is on record?
The Potency was inconclusive: 31.6 µM [activator, single point].

Which Potency does the source give for O=C(NCCOc1ccccc1Cl)C(=O)Nc1ccccc1 here?
Its Potency is inconclusive: 7.08 µM [activator, partial curve].

With COc1ccc(C(=O)Cc2cc(OC)c(OC)cc2[N+](=O)[O-])cc1 as the compound, how does the Potency read?
Its Potency is inconclusive: 17.8 µM [activator, single point].

With COc1ccccc1NC(=O)COc1ccccc1C(=O)c1cnn(-c2ccccc2)c1 as the compound, how does the Potency read?
The Potency was inconclusive: 22.4 µM [activator, single point].

For Cc1c(Cl)cccc1NC(=O)CCN1CCCCCC1, which Potency is on record?
Its Potency is inconclusive: 2.51 µM [activator, full curve].

With CC(C)c1cc(C(=O)NCc2ccccc2)no1 as the compound, how does the Potency read?
Its Potency is inconclusive: 15.8 µM [activator, partial curve, poor fit].

For OC1C=CSc2nc3ccccc3n21 (configuration not stated), which Potency is on record?
Its Potency is inconclusive: 22.4 µM [activator, partial curve, poor fit].

Which Potency does the source give for C/C(N)=C(/C#N)C(=O)COC(=O)Cc1coc2cc(C)ccc12 here?
The Potency was inconclusive: 35.5 µM [activator, single point].

For COc1ccc(NS(=O)(=O)c2cc(S(C)(=O)=O)ccc2C)cc1, which Potency is on record?
Its Potency is inconclusive: 4.47 µM [activator, single point].

Which Potency does the source give for CCC(=O)n1nc(-c2ccccc2)nc1NCc1ccccc1 here?
Its Potency is inconclusive: 2.82 µM [activator, partial curve].

With Cc1ccn2c(NC3CCCC3)c(-c3cccs3)nc2c1 as the compound, how does the Potency read?
Its Potency is “inactive”.

With CCOc1ccc(-c2cc(C(=O)Nc3ccc4c(c3)OCCO4)c3ccccc3n2)cc1 as the compound, how does the Potency read?
Its Potency is inconclusive: 20 µM [activator, single point].

With CCOC(=O)c1ccc(-c2ccc(/C=N/NC(=O)CN(c3ccccc3Br)S(C)(=O)=O)o2)cc1 as the compound, how does the Potency read?
The Potency was active: 11.2 µM.

With CCOc1ccc(N/C=C/C(=O)c2ccccc2)c([N+](=O)[O-])c1 as the compound, how does the Potency read?
Its Potency is active: 0.562 µM.

Which Potency does the source give for Fc1cccc2sc(N3CCCC3)nc12 here?
The Potency was inconclusive: 31.6 µM [activator, single point].

With CCOC(=O)N1CCN(C(=O)c2ccc3nc4ccc(Cl)cc4c(=O)n3c2)CC1 as the compound, how does the Potency read?
Its Potency is inconclusive: 35.5 µM [activator, single point].

For N#Cc1cc([N+](=O)[O-])cnc1NCC(O)CO (configuration not stated), which Potency is on record?
Its Potency is “inactive”.

With CCN(CC)S(=O)(=O)c1cc(C(=O)Nc2ccccn2)ccc1C as the compound, how does the Potency read?
Its Potency is active: 22.4 µM.

With Cn1c(=S)n(/N=C/c2ccc3c(c2)OCO3)c2ccccc21 as the compound, how does the Potency read?
Its Potency is “inactive”.

Which Potency does the source give for CCCCNc1nnc(SCC(=O)c2c[nH]c3ccccc23)s1 here?
The Potency was inconclusive: 3.98 µM [activator, partial curve].

For CCc1nnc(NC(=O)C2CC(=O)N(Cc3ccccc3)C2)s1 (configuration not stated), which Potency is on record?
The Potency was inconclusive: 25.1 µM [activator, single point].

Which Potency does the source give for CCOC(=O)N1CCC(N2CCN(S(=O)(=O)c3ccc4ccccc4c3)CC2)CC1 here?
The Potency was “inactive”.

With O=S(=O)(c1ccc2ccccc2c1)N(CC(O)CN1CCOCC1)c1ccccc1 (configuration not stated) as the compound, how does the Potency read?
Its Potency is inconclusive: 1.58 µM [activator, partial curve].

For Cc1nnc(SCc2nc3ccccc3s2)n1-c1ccccc1, which Potency is on record?
The Potency was inconclusive: 8.91 µM [activator, partial curve, poor fit].

With Cc1ccccc1NC(=S)NCCc1ccccc1 as the compound, how does the Potency read?
The Potency was inconclusive: 0.891 µM [activator, full curve].

For COc1ccc(S(=O)(=O)N2CCC(C(=O)Nc3cc(C(F)(F)F)ccc3Cl)CC2)cc1, which Potency is on record?
Its Potency is “inactive”.

For CCOC(=O)CCN(Cc1sccc1C)S(=O)(=O)c1ccc(F)cc1, which Potency is on record?
The Potency was inconclusive: 3.55 µM [activator, single point].

Which Potency does the source give for COCCCn1c(N)c(-c2nc3ccccc3n2C)c2nc3ccccc3nc21 here?
The Potency was inconclusive: 0.01 µM [activator, full curve, poor fit].

For COc1ccc(-c2noc(-c3ccccc3F)n2)cc1, which Potency is on record?
Its Potency is inconclusive: 12.6 µM [activator, single point].

With Cc1nn(Cc2ccccc2Cl)c(C)c1C(=O)Nc1nnc(C2CC2)s1 as the compound, how does the Potency read?
Its Potency is inconclusive: 3.98 µM [activator, partial curve, poor fit].

For Cc1ccc(-n2nc3ccc(NC(=S)NC(=O)/C=C/c4ccco4)cc3n2)cc1, which Potency is on record?
Its Potency is inconclusive: 22.4 µM [activator, partial curve, poor fit].

With COc1ccc(-c2cn3cc(C)ccc3n2)cc1Br as the compound, how does the Potency read?
The Potency was active: 2.24 µM.

Which Potency does the source give for CCCCC/C=C\C/C=C\C/C=C\C=C\C1CCCC(=O)O1 (configuration not stated) here?
The Potency was “inactive”.

With CC(C)CC(NC(=O)OCC1c2ccccc2-c2ccccc21)C(=O)O (configuration not stated) as the compound, how does the Potency read?
Its Potency is active: 12.6 µM.

For Nc1ccc(C(=O)Oc2ccccc2)c(O)c1, which Potency is on record?
Its Potency is inconclusive: 15.8 µM [activator, single point].

For CCc1ccc(-n2nc3ccc(NC(=O)COc4ccc(OC)cc4)cc3n2)cc1, which Potency is on record?
The Potency was inconclusive: 0.631 µM [activator, full curve].

For Cc1ccc(-n2ncc3c(SCc4ccccc4)ncnc32)cc1, which Potency is on record?
The Potency was active: 11.2 µM.

With COc1ccc(C2=CSC3=NNC4(CCCCC4)NN23)cc1 as the compound, how does the Potency read?
Its Potency is “inactive”.

For CCOc1ccc(C=Nc2cccc3ncccc23)cc1, which Potency is on record?
Its Potency is “inactive”.

With CCCOc1ccc(/C=N/Nc2cccc([N+](=O)[O-])c2)c(O)c1 as the compound, how does the Potency read?
The Potency was inconclusive: 17.8 µM [activator, partial curve, poor fit].

For CN(C)c1ccc(NC(=O)N2CCOCC2)cc1, which Potency is on record?
The Potency was inconclusive: 1.58 µM [activator, partial curve, poor fit].

For COc1ccc(/C=C(\C#N)C(=O)OC2CCOC2=O)cc1 (configuration not stated), which Potency is on record?
Its Potency is inconclusive: 5.62 µM [activator, single point].

Reference: PubChem BioAssay AID1458 (National Center for Advancing Translational Sciences (NCATS), 2008)
